Out of some 110,000 compounds screened, about 230 (0.21%) showed an effect of 50% or more. The list shows a part of the results.
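Note: 30 min substrate incubation versus DMSO and 10 µM JCP410 controls.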

Chain of DPAP1 (Q8IIJ9 whole entry, looked up): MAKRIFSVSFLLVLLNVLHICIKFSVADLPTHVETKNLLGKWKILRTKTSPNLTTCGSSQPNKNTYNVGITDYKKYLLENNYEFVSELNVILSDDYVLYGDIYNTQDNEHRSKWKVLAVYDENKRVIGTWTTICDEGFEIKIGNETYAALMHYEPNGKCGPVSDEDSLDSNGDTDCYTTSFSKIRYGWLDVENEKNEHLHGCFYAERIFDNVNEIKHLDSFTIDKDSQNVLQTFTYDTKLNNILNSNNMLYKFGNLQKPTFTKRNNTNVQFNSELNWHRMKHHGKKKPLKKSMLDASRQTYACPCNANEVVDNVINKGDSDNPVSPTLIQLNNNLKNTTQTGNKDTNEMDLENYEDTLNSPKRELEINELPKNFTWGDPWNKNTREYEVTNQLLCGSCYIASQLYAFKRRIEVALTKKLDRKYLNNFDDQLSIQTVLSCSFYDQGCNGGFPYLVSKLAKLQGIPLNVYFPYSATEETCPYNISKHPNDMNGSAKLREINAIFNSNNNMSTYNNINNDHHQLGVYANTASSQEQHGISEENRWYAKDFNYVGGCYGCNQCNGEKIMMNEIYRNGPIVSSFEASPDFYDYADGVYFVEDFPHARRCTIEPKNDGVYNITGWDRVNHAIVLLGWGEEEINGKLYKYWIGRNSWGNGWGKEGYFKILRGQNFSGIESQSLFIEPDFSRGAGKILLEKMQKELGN

This assay concerns the target DPAP1 (Plasmodium falciparum, UniProt Q8IIJ9). Briefly: primary screen, percent inhibition; read by cleavage of a fluorogenic dipeptide substrate; higher = more effect of the substance. On the set-up: species or system P. falciparum D10 trophozoite lysates; single well.
In the case of `O=C(c1cccc(Cl)c1)N1CCN(c2ccc3nnc(-c4ccccc4)n3n2)CC1`, the “% Inhibition @ 10 uM” value is on record as -1.37%.

For the compound `O=C(NCCCc1ccccc1)c1ccc(CNc2c(N3CCCC3)c(=O)c2=O)cc1`, the “% Inhibition @ 10 uM” value is 1.22%.

On to `COCCCNC(=O)c1cnn(-c2ccccc2)c1-n1cccc1`, for which the “% Inhibition @ 10 uM” value amounted to 0.137%.

For the compound `CCOC(=O)c1c(C)nc(S)c(C#N)c1-c1ccc(OC)cc1`, the “% Inhibition @ 10 uM” value came out at 52.9%.

In the case of `O=C1C2C3C=CC(C3)C2C(=O)N1CNc1ccccc1Cl` (centres unmarked), the “% Inhibition @ 10 uM” value is on record as -17.9%.

On to `CCc1c(C)nc2nncn2c1NCc1ccccc1OC`, for which the “% Inhibition @ 10 uM” value was -0.808%.

As for `COC(=O)C1=C(C)N(c2ccc(C)c(C)c2)C(=O)C1`, the “% Inhibition @ 10 uM” value is given as -3.38%.

Consider `CC1(C)C=Cc2c(ccc3ccccc23)S1`, for which the “% Inhibition @ 10 uM” value stood at 4%.

Consider `COC(=O)c1sccc1NC(=S)N(C)C1CCCCC1`, for which the “% Inhibition @ 10 uM” value is on record as 0.813%.

On to `Cc1cccc(OCCn2c(=O)oc3ccc(C)cc32)c1`, for which the “% Inhibition @ 10 uM” value is -2.16%.

Turning to `O=C1NC(=O)C2(CCC(C(=O)O)C2)N1` (centres unmarked), the “% Inhibition @ 10 uM” value came to 1.68%.

Consider `Brc1cccc(-c2nc(C3CCCCC3)no2)c1`, for which the “% Inhibition @ 10 uM” value was 5.51%.

As for `O/C(=C\c1nc2ccccc2nc1O)c1ccc(Cl)cc1`, the “% Inhibition @ 10 uM” value is listed as 3.96%.

For `CCN(CC)c1ccc2c(c1)OC(N)=C(C#N)C2c1ccccc1F` (centres unmarked), the “% Inhibition @ 10 uM” value was -0.988%.

Take `COc1ccc(OC)c(C2/C(=C(\O)OC3CCCCC3)C(C)=Nc3ncnn32)c1` (centres unmarked): the “% Inhibition @ 10 uM” value is 6.03%.

Regarding `Nc1nonc1-c1noc(-c2cc3cc(Br)ccc3oc2=O)n1`, the “% Inhibition @ 10 uM” value is -6.56%.

On to `CCOc1cc(/C=C2/NC(=O)N(Cc3ccccc3F)C2=O)ccc1OCc1ccccc1`, for which the “% Inhibition @ 10 uM” value is -5.51%.

Turning to `COc1ccc(NC(=O)C2(C)CC3C=CC2C3)cc1` (centres unmarked), the “% Inhibition @ 10 uM” value was -2.54%.

Regarding `CCN1C(=O)c2cccc3c(NS(=O)(=O)c4ccccc4)ccc1c23`, the “% Inhibition @ 10 uM” value was -1.29%.

On to `COCCNC(=O)Cn1ncc2c1-c1cc(C)ccc1OC2`, for which the “% Inhibition @ 10 uM” value is on record as -7.48%.

Regarding `CC(C)CS(=O)(=O)C1=NSC2=NC(=O)/C(=C\c3ccc(-c4cccc(C(=O)O)c4)o3)C(=N)N21`, the “% Inhibition @ 10 uM” value is -7.21%.

With `COc1cccc(CSc2nc3ccncc3n2CC(=O)N2CCCC2)c1`, the “% Inhibition @ 10 uM” value is -2.37%.

In the case of `C=CCn1c(SCC(=O)NCC2CCCO2)nc2sc3c(c2c1=O)CCCCC3` (centres unmarked), the “% Inhibition @ 10 uM” value is -2.77%.

`Cc1ccccc1NC(=O)CS(=O)(=O)c1ccc2ccccc2c1`: the “% Inhibition @ 10 uM” value is on record as -0.25%.

Take `Cn1c(OCc2ccco2)nc2c1c(=O)n(Cc1ccc(F)cc1)c(=O)n2C`: the “% Inhibition @ 10 uM” value is 3.74%.

With `CCc1cc(C(c2ccc(Cl)cc2)N2CCN(CCO)CC2)c(NC(=O)c2ccccc2)s1` (centres unmarked), the “% Inhibition @ 10 uM” value was determined as 0.0289%.

As for `CC(C)S(=O)(=O)C1=NSC2=NC(=O)/C(=C\c3ccc(O)c(O)c3)C(=N)N21`, the “% Inhibition @ 10 uM” value was -5.27%.

Regarding `COc1cc2c(cc1OC)C(COc1ccc(F)cc1)N(C(=O)c1cccc(OC)c1OC)CC2` (centres unmarked), the “% Inhibition @ 10 uM” value is listed as -8.41%.

As to `CC(=O)c1ccc(NC(=O)c2ccc(-c3ccc(C(=O)Nc4ccc(C(C)=O)cc4)cc3)cc2)cc1`, the “% Inhibition @ 10 uM” value is on record as -0.425%.

Regarding `O=C(COc1ccc(Cl)cc1)Nc1cccc(Br)c1`, the “% Inhibition @ 10 uM” value turned out to be 1.62%.

In the case of `Cc1nnc2n1Nc1nc3ccccc3nc1S2`, the “% Inhibition @ 10 uM” value was determined as 4.84%.

Turning to `COc1ccc(-c2nc3n(c2N)CCS3)cc1`, the “% Inhibition @ 10 uM” value is recorded as -2.91%.

For `Cc1ccc(CN(CC(=O)Nc2ccc3c(c2)OCCO3)S(=O)(=O)c2ccc(C)cc2)cc1`, the “% Inhibition @ 10 uM” value is -4.12%.

On to `COc1ccc(OC)c(C2CC(=O)C3=C(C2)NC(=O)CC3c2ccc(Cl)c(Cl)c2)c1` (centres unmarked), for which the “% Inhibition @ 10 uM” value came to 2.54%.

Regarding `Cc1ccc(NC(=O)CN2C(=O)S/C(=C\c3ccc(OCC#N)cc3)C2=O)cc1`, the “% Inhibition @ 10 uM” value turned out to be 2.55%.

As for `Cc1cc(-c2ccc(C)c(S(=O)(=O)NC(C)(C)C)c2)on1`, the “% Inhibition @ 10 uM” value came out at 1.67%.

Consider `CCOC(=O)c1nnc(Cc2ccc(C)cc2)o1`, for which the “% Inhibition @ 10 uM” value is listed as -2.23%.

Consider `Cc1ccccc1CNC(C)c1ccccc1` (centres unmarked), for which the “% Inhibition @ 10 uM” value was -1.38%.

For `Cc1cc(NC(=O)c2ccccc2Oc2ccccc2)no1`, the “% Inhibition @ 10 uM” value is recorded as -3.41%.

For the compound `Cc1cccc(NC(=O)Cn2nc(C(F)(F)F)cc2C2CC2)c1`, the “% Inhibition @ 10 uM” value is listed as -6.05%.

For `CCOC(=O)c1cc2c(=O)n3ccccc3nc2n(CC(C)C)/c1=N/C(=O)c1ccc(OC)cc1`, the “% Inhibition @ 10 uM” value came out at 1.26%.

In the case of `COc1ccccc1N1CCN(C(=O)c2cccs2)CC1`, the “% Inhibition @ 10 uM” value is reported as -3.13%.

Take `COc1cc(Br)c(C2CC(=O)NC(C)=C2C(=O)OCc2ccc(C)cc2)cc1OC` (centres unmarked): the “% Inhibition @ 10 uM” value was found to be 3.04%.

Turning to `CCN(CC)CCOCCOc1cc(C)cc(C)c1`, the “% Inhibition @ 10 uM” value was -2.91%.

Consider `COC(=O)c1sccc1NC(=O)CN1Cc2ccccc2C1=O`, for which the “% Inhibition @ 10 uM” value is -2.41%.

Consider `Cc1nn2c(=O)cc(COc3ccc(/C=C4\C(=N)N5N=CSC5=NC4=O)cc3)nc2s1`, for which the “% Inhibition @ 10 uM” value was -3.95%.

As for `Cc1occc1C(=O)Nc1sc2c(c1C#N)CCCCCC2`, the “% Inhibition @ 10 uM” value came out at 10%.

`CC(=O)c1c(C)oc2ccc(N(C(C)=O)S(=O)(=O)c3cc(C)ccc3C)cc12`: the “% Inhibition @ 10 uM” value is -5.4%.

Consider `Cc1ccc(N2C(=O)CC(N3CCC(C)CC3)C2=O)cc1` (centres unmarked), for which the “% Inhibition @ 10 uM” value was determined as 18.7%.

For the compound `CCCCC(=O)Nc1cc2c(cc1C(C)=O)OCO2`, the “% Inhibition @ 10 uM” value was -1.84%.

`OC1CCCN(Cc2cccc(Cl)c2Cl)C1` (centres unmarked): the “% Inhibition @ 10 uM” value is recorded as -6.47%.

Take `CCOC(=O)N1CCN(C(=O)C(NC(=O)c2ccc(C34CC5CC(CC(C5)C3)C4)cc2)C(C)C)CC1` (centres unmarked): the “% Inhibition @ 10 uM” value came out at 4.69%.

Take `COc1ccc(N(CN2C(=O)C3C4c5ccccc5C(c5ccccc54)C3C2=O)C(C)=O)cc1` (centres unmarked): the “% Inhibition @ 10 uM” value is -9.75%.

On to `COc1ccc(C(=O)Nc2cc(C)ccc2O)cc1Cl`, for which the “% Inhibition @ 10 uM” value is reported as 0.161%.

For `Cc1ccccc1N(CC(=O)N1CCN(c2ccccc2)CC1)S(C)(=O)=O`, the “% Inhibition @ 10 uM” value is recorded as -0.641%.

Regarding `CCC(C)NC(=O)CC(c1ccc(OC)cc1)n1cccc1` (centres unmarked), the “% Inhibition @ 10 uM” value was 0.953%.

For `Cc1cc(Br)cnc1O`, the “% Inhibition @ 10 uM” value amounted to 6.73%.

In the case of `COc1ccc(N2C(=O)CC(Sc3nc(C)cc(C)n3)C2=O)cc1` (centres unmarked), the “% Inhibition @ 10 uM” value is -2.39%.

As for `COc1ccccc1CNC(=O)Nc1cccc(Cl)c1`, the “% Inhibition @ 10 uM” value was 5.42%.

For the compound `COCC(C)NCc1cccc2ccccc12` (centres unmarked), the “% Inhibition @ 10 uM” value is -4.04%.

As to `CCN(Cc1ccccc1)C(=O)c1ccc(CS(=O)c2ccc(Br)cc2)o1` (centres unmarked), the “% Inhibition @ 10 uM” value was 3.36%.

`CCOc1ccc(CCNC(=O)CCC(=O)N2Cc3ccccc3Oc3ncccc32)cc1OCC`: the “% Inhibition @ 10 uM” value is 3.53%.

As to `O=C(O)c1ccc(Br)c(S(=O)(=O)N2CCCC2)c1`, the “% Inhibition @ 10 uM” value is on record as -0.856%.

On to `COc1ccc(C(=O)NCC2CCCO2)cc1` (centres unmarked), for which the “% Inhibition @ 10 uM” value is on record as -6.05%.

Consider `COc1ccc(-c2cc(C(=O)O)c3cc(C)ccc3n2)cc1`, for which the “% Inhibition @ 10 uM” value turned out to be 1.84%.
